Two molecules from patent US20260226189A1 (PHILOGEN S P A, published 2026) can be followed below.

The target in this experiment is T1, CD28 on human T cells (human, UniProt P10747 19-220).
T1 construct: whole, on cells
The experiment is described as follows: flow cytometry on human T cells, 50 nM, PE anti-human IgG Fc detection, control is secondary antibody only.

B1: anti-CD28 (AE2P)-anti-CEA (PEA2) bispecific antibody in (2+2) IgG4-(scFv)2 format (bispecific antibody)
heavy: [about 100 residues omitted here]RYIAFDYWGQGTLVTVSSASTKGPSVFPLAPCSRSTSESTAALGCLVKDYFPEPVTVSWNSGALTSGVHTFPAVLQSSGLYSLSSVVTVPSSSLGTKTYTCNVDHKPSNTKVDKRV[human IgG4 Fc with S228P (EU numbers) omitted here]
light: DIQMTQSPSSLSASVGDRVTITCRASQSISSYLNWYQQKPGKAPKLLIYAASSLQSGVPSRFSGSGSGTDFTLTISSLQPEDFATYYCQQGGMPPDTFGQGTKVEIKRTVAAPSVFIFPPSDEQLKSGTASVVCLLNNFYPREAKVQWKVDNALQSGNSQESVTEQDSKDSTYSLSSTLTLSKADYEKHKVYACEVTHQGLSSPVTKSFNRGECGGGGSGGGGSGGGGSEIVLTQSPGTLSLSPGERATLSCRASQSVSQNHLAWYQQKPGQAPRLLIYLASRRHTGIPDRFSGSGSGTDFTLTISRLEPEDFAVYYCQQSGRVPWTFGQGTKVEIKGGGGSGGGGSGGGGSEVQLLESGGGLVQPGGSLRLSCAASGFTFSRTAMSWVRQAPGKGLEWVSAIDYDGGVTYYADSVKGRFTISRDNSKNTLYLQMNSLRAEDTAVYYCAKLTYARFDYWGQGTLVTVSS
notes: also called IgG4 AE2P-(scFvPEA2)2; anti-CD28 IgG4 (AE2P)-anti-CEA (scFv)2 (PEA2)
B1: the binding result is given as “binds”.

B2: anti-CD28 (AE2P)-anti-CEA (Sm3E) bispecific antibody in (2+2) IgG4-(scFv)2 format (bispecific antibody)
heavy: [about 100 residues omitted here]RYIAFDYWGQGTLVTVSSASTKGPSVFPLAPCSRSTSESTAALGCLVKDYFPEPVTVSWNSGALTSGVHTFPAVLQSSGLYSLSSVVTVPSSSLGTKTYTCNVDHKPSNTKVDKRV[human IgG4 Fc with S228P (EU numbers) omitted here]
light: DIQMTQSPSSLSASVGDRVTITCRASQSISSYLNWYQQKPGKAPKLLIYAASSLQSGVPSRFSGSGSGTDFTLTISSLQPEDFATYYCQQGGMPPDTFGQGTKVEIKRTVAAPSVFIFPPSDEQLKSGTASVVCLLNNFYPREAKVQWKVDNALQSGNSQESVTEQDSKDSTYSLSSTLTLSKADYEKHKVYACEVTHQGLSSPVTKSFNRGECGGGGSGGGGSGGGGSQVKLEQSGAEVVKPGASVKLSCKASGFNIKDSYMHWLRQGPGQRLEWIGWIDPENGDTEYAPKFQGKATFTTDTSANTAYLGLSSLRPEDTAVYYCNEGTPTGPYYFDYWGQGTLVTVSSGGGGSGGGGSGGGGENVLTQSPSSMSVSVGDRVTIACSASSSVPYMHWLQQKPGKSPKLLIYLTSNLASGVPSRFSGSGSGTDYSLTITSVQPEDAATYYCQQRSSYPLTFGGGTKLEIK
notes: also called IgG4 AE2P-(scFvSm3E)2; anti-CD28 IgG4 (AE2P)-anti-CEA (scFv)2 (Sm3E)
In the case of B2, the binding result was “binds”.
